According to patent US7285566B2, “Resistance-repellent retroviral protease inhibitors” (priority 2002, dated 2007):

Biological target: wild type and V82F/I84V mutant HIV protease
Assay: HIV protease inhibition, Ki for wild type and mutant enzymes
Conditions: V82F and I84V mutations vs wild type
Text: Data from the present example are described in detail in Yoshimura et al., J. Virol., 76, 1349-1358 (2002).

| Structure (SMILES) | Ki values for wild type and mutant enzymes, effect of active site mutations |
| --- | --- |
| COc1ccc(S(=O)(=O)N(CC(C)C)C[C@@H](O)[C@H](Cc2ccccc2)NC(=O)O[C@H]2CO[C@H]3OCC[C@H]32)cc1 [Compound 1] | similar |
| CC(C)CN(C[C@@H](O)[C@H](Cc1ccccc1)NC(=O)O[C@H]1CCOC1)S(=O)(=O)c1ccc(N)cc1 [Compound 2, Amprenavir] | dramatically affected |
